Measured values: PubChem BioAssay AID2675 (National Center for Advancing Translational Sciences (NCATS), 2010)
Among all 280,000 compounds or so, about 100 (0.036%) were called active. Inconclusive means that the source gave no clear call. Such entries were picked first, then a sample of the others. The call rests on the fitted dose curve; in most records, active means well fitted inhibition curve with a large enough effect in the signal ratio, with a control signal flat (not every such curve was filed as active); inconclusive means small, poorly fitted or top-dose-only effect, or effect the other way, or a change in a side signal; inactive means no such curve, though single readings can be large or run the other way; the % refers to the signal ratio. A potency beside an inconclusive call is a rough fit, not a confirmed value. “Side channel” marks fits to a control or component signal instead of the main read-out.

These molecules were tested against Muscleblind-like protein 1 (Homo sapiens) (UniProt Q9NR56) (assay: qHTS Assay for Inhibitors of MBNL1-poly(CUG) RNA binding). Conditions: TR-FRET MBNL1-His/biotin-(CUG)12 binding, 665/545 ratio; activity change, negative = inhibition: at 57.5 µM (top of the series).
Sequence of UniProt Q9NR56 (Q9NR56 whole entry, looked up): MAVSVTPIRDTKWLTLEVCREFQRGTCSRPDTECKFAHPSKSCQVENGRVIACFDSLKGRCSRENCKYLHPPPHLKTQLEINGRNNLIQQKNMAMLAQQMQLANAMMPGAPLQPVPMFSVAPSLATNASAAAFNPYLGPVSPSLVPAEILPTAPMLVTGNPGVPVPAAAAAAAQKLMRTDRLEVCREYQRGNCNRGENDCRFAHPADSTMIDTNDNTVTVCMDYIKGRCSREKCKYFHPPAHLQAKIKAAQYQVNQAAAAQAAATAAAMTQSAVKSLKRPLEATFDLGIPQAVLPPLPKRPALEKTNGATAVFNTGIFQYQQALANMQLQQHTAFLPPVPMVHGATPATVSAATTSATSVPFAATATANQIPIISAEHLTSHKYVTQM
Summary of the method: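 Inhibition of protein-RNA binding appears as loss of TR-FRET between terbium anti-His antibody on MBNL1-His and streptavidin-XL665 on biotin-(CUG)12. Activity is normalized to buffer-only and uninhibited-complex controls.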
On the % scale 0 is the no-effect control and ±100 the full control effect; potency means the concentration at half of the fitted maximal effect; tags describe the fitted curve by direction and shape or compound fluorescence and quenching.

SMILES	Potency	activity change, negative = inhibition
COc1cc(/C=N/n2c(-c3ccc4c(c3)NC(=O)CO4)csc2=Nc2cccc(C)c2)ccc1O	inconclusive: 39.8 µM [quencher, side channel, single point]	–
O=C1NC(c2ccccn2)Nc2sc3c(c21)CCC3 (configuration not stated)	inconclusive: 31.6 µM [quencher, side channel, single point]	–
Cc1ncc([N+](=O)[O-])n1CC(=O)Nc1ccccc1	inconclusive: 39.8 µM [quencher, side channel, single point]	–
Cc1cc(NC(=O)CSc2nnnn2Cc2ccccc2)no1	–	inactive: -2.65%
Cc1nccn1CCCN1C(=O)OC2(CCCCC2)C1(C)O (configuration not stated)	inconclusive: 39.8 µM [quencher, side channel, single point]	–
O=[N+]([O-])c1ccc2c(c1)C(N1CCOCC1)/C(=C/C1(O)CCCCC1)O2 (configuration not stated)	inconclusive: 12.6 µM [quencher, side channel, partial curve]	–
COc1cc(C)c(S(=O)(=O)Nc2ccccc2F)cc1C	–	inactive: -8.02%
CC(C)c1ccc(C2=C(O)c3ccccc3C(=O)C2=O)cc1	inconclusive: 10 µM [quencher, side channel, partial curve, poor fit]	–
CCOC(=O)C(Sc1nnc2c3ccccc3n(CC)c2n1)C(=O)OCC	inconclusive: 20 µM [quencher, partial curve]	–
COc1ccc(Cn2c(-c3ccc(C)cc3)nc3c(c(=O)c4ccccc4n3C)c2=O)cc1	inconclusive: 39.8 µM [fluorescent, side channel, single point]	–
COc1cc(SC)ccc1C(=O)Nc1ccc(C)cc1	–	inactive: -6.23%
CC(C)(C)C(=O)NCCCNc1ccc([N+](=O)[O-])cc1	inconclusive: 15.8 µM [quencher, side channel, partial curve]	–
COc1cc(/C=C2\S/C(=N/S(=O)(=O)c3ccccc3)NC2=O)c([N+](=O)[O-])cc1OC	inconclusive: 7.94 µM [quencher, side channel, full curve, poor fit]	–
CC(C)CNC(=O)CSc1nnc(-c2cccc(S(=O)(=O)N3CCCCC3)c2)o1	–	inactive: 3.6%
COc1ccccc1NC(=O)CCC(=O)OCC(=O)c1ccc(C)c([N+](=O)[O-])c1	inconclusive: 31.6 µM [quencher, side channel, single point]	–
CCCNC(=O)CCC(=O)Nc1ncc(-c2ccc(C)cc2)n1C	–	inactive: -5.74%
COc1ccc(CNc2cc([N+](=O)[O-])ccc2OC)cc1	inconclusive: 17.8 µM [quencher, side channel, partial curve]	–
O=C1CSC(=S)N1/N=C/c1ccc2c(c1)OCCO2	inconclusive: 35.5 µM [quencher, side channel, single point]	–
COCCNC(=O)CCn1nc(-c2ccc(Cl)cc2)ccc1=O	inconclusive: 10 µM [quencher, side channel, partial curve]	–
COc1cccc2cc(C(=O)NCc3ccccn3)c(=O)oc12	inconclusive: 12.6 µM [quencher, side channel, partial curve]	–
CC(=O)Nc1ccc(Nc2nnc(-c3ccc(C)c(S(=O)(=O)NCC4CCCO4)c3)c3ccccc23)cc1 (configuration not stated)	inconclusive: 28.2 µM [quencher, side channel, partial curve]	–

SMILES	Potency	activity change, negative = inhibition
Oc1cccc2ccc(/C=C/c3ccccc3Cl)nc12	–	inactive: 5.71%
c1ccc2nc3[nH]cnc3nc2c1	inconclusive: 25.1 µM [quencher, side channel, partial curve]	–
CCC(=O)Nc1ccc(Oc2ccc3c(c2)C(=O)NC3=O)cc1	inconclusive: 14.1 µM [quencher, side channel, partial curve]	–
COc1ccc(/C=C2\Sc3ccc(C(=O)NC4CC4)cc3N(C)C2=O)cc1OC	inconclusive: 15.8 µM [quencher, side channel, partial curve]	–
CCCCn1nnnc1SCC(=O)c1ccc(C)c(C)c1	–	inactive: 9.31%
CCc1cc2cc3c(cc2nc1SCC(=O)Nc1cc(C)on1)OCO3	inconclusive: 3.98 µM [fluorescent, full curve]	–
COC(=O)c1cc(C(=O)NCC2CCCCC2)cc([N+](=O)[O-])c1	inconclusive: 7.94 µM [quencher, side channel, partial curve]	–
CCOC(=O)C(C(=O)OCC)C1CS(=O)(=O)CC1C(C(=O)OCC)C(=O)OCC (configuration not stated)	inconclusive: 0.708 µM [quencher, side channel, single point]	–
Cc1ccc(C(=O)CC(Nc2ccc(F)cc2)c2ccccc2)cc1 (configuration not stated)	inconclusive: 31.6 µM [fluorescent, side channel, partial curve]	–
CC(=O)C1=C(O)C(=O)N(c2ccc(Br)cc2)C1c1ccccc1[N+](=O)[O-] (configuration not stated)	inconclusive: 28.2 µM [quencher, side channel, single point]	–
COc1ccccc1/C=C/C(=O)c1ccc(Cl)cc1	–	inactive: 1.33%
N#Cc1c(-c2ccco2)ccn(Cc2cccc(F)c2)c1=O	inconclusive: 17.8 µM [quencher, partial curve]	–
CC1(C)CC(=O)C(C(c2ccc(F)cc2)C2C(=O)CC(C)(C)CC2=O)C(=O)C1	–	inactive: -13.6%
O=c1c(-c2ccc(Cl)cc2)[n+]([O-])c2ccccc2n1O	inconclusive: 15.8 µM [quencher, side channel, partial curve]	–
Cc1ccc(C(=O)Nc2ccc3c(c2)C(=O)NC3=O)cc1	–	inactive: 8.87%
O=C(/C=C/c1ccccc1)Nc1ccc(C(=O)N2CCCCC2)cc1	inconclusive: 20 µM [quencher, side channel, partial curve]	–
COc1ccc(C(=O)NC(=S)N2CCN(c3ccc([N+](=O)[O-])cc3)CC2)cc1	–	inactive: 11%
O=C(CC(=O)N/N=C/c1cccs1)NCc1ccccc1	inconclusive: 20 µM [quencher, side channel, partial curve]	–
O=C(CNC(=O)c1ccccc1)N=Nc1c(O)[nH]c2ccc(Br)cc12	inconclusive: 5.62 µM [quencher, side channel, partial curve]	–
Cc1ccc(C)c(Nc2c([N+](=O)[O-])c(=O)oc3ccccc23)c1	inconclusive: 10 µM [quencher, side channel, partial curve]	–
C=CCNC1=C(Cl)C(=O)N(Cc2ccccc2)C1=O	inconclusive: 17.8 µM [quencher, side channel, partial curve]	–

SMILES	Potency	activity change, negative = inhibition
O=c1ccc(-c2ccc(S(=O)(=O)NCC3CCN(Cc4ccccc4F)CC3)s2)n[nH]1	inconclusive: 25.1 µM [quencher, side channel, partial curve]	–
CC(=O)Nc1cccc2c1C(=O)N(c1ccc(C)cc1)C2=O	inconclusive: 35.5 µM [quencher, side channel, single point]	–
COc1cc(=O)[nH]c(SC(C)C(=O)Nc2nc3c(s2)CCCC3)n1 (configuration not stated)	–	inactive: -1.26%
Oc1ccc(N=Nc2ccccc2-c2nn[nH]n2)c(O)c1	inconclusive: 15.8 µM [quencher, side channel, partial curve]	–
Cn1nc([N+](=O)[O-])nc1Sc1nnc(-c2ccccc2)o1	inconclusive: 20 µM [quencher, side channel, single point]	–
Cc1cc2c3c(c1)C(C)(c1ccccc1)CC(C)(C)N3C(=O)C21C(C#N)=C(N)OC2=C1C(=O)CC(C)(C)C2 (configuration not stated)	–	inactive: -1.67%
CN(/N=C/c1ccc(N(C)C)cc1)C1=NS(=O)(=O)c2ccccc21	inconclusive: 0.355 µM [quencher, side channel, full curve]	–
COc1ccc(/C=C2\SC(=S)N(CCCC(=O)Nc3ccccc3C(=O)O)C2=O)cc1OC	–	inactive: 3.62%
CC(SC1=NCCN1S(C)(=O)=O)c1ccccc1 (configuration not stated)	inconclusive: 3.98 µM [fluorescent, side channel, single point]	–
Cc1cccn2c(=O)c(/C=C(\C#N)C(N)=O)c(N3CCCCCC3)nc12	inconclusive: 28.2 µM [quencher, side channel, partial curve]	–
COc1ccc(N2C(=O)CSC2c2ccccc2[N+](=O)[O-])cc1 (configuration not stated)	inconclusive: 17.8 µM [quencher, side channel, partial curve]	–
Nc1[nH]nc2nc(-c3ccccc3)[nH]c(=O)c12	–	inactive: -3.18%
CCc1ccc(NC(=O)C(=O)c2cn(CC(=O)N3CCCCC3)c3ccccc23)cc1	inconclusive: 39.8 µM [fluorescent, side channel, single point]	–
O=C(c1ccc([N+](=O)[O-])cc1[N+](=O)[O-])N1CCc2ccccc21	inconclusive: 7.08 µM [quencher, side channel, partial curve]	–
O=C(Cn1c(=O)cnc2ccccc21)N1CCCc2ccccc21	inconclusive: 15.8 µM [quencher, side channel, partial curve]	–
CC(=O)N/N=C/c1c(C)[nH]n(-c2ccccc2)c1=O	–	inactive: -2.86%
Cc1c(N=Nc2c(-c3ccc([N+](=O)[O-])cc3)[nH]n(C(N)=S)c2=O)cccc1[N+](=O)[O-]	–	inactive: 2.55%
Cc1sc2cc3c(c(C(=O)c4ccccc4)[n+]2c1C)-c1cccc2cccc-3c12	inconclusive: 20 µM [quencher, side channel, partial curve]	–
O=S(=O)(NCCN1CCOCC1)c1ccc(F)c(Cl)c1	–	inactive: 3.94%
NC1=NC(=O)/C(=C/c2cccs2)S1	inconclusive: 17.8 µM [quencher, side channel, partial curve]	–
